Our source for the viability, T/C and IC50 values is PubChem BioAssay AID2060619 (Molecular Pharmacology Branch, DTP, NCI, 2025).

The source holds more than one record for some entries. This list holds those alone. There may be further records. The records of an entry repeat one measurement in other runs, samples, wells, individuals or studies. Signs of the kind (2×) count equal records among those shown.

The assay concerns 323965-272-R-J2-PDC complex spheroid viability. As to the kind of experiment: Anticancer human tumor 323965-272-R-J2-PDC patient-derived pancreatic carcinoma cell line growth inhibition [CLK]. Conditions: for viability, T/C: stronger effect = lower value. The source says:
A high-throughput screen of multi-cell type tumor spheroids was designed to identify active combinations of […] and targeted small molecules. Complex spheroids include a stromal component modeled by human endothelial cells (HUVEC) and fibroblasts modeled by human mesenchymal stem cells (MSCs). The concentration ranges selected for each drug and investigational agent were based upon clinically achievable concentrations if the clinical Cmax of the agent was known.
Compounds. The drugs and investigational agents: cirtuvivint (SM08502; NSC835563), CC-671 (NSC850746), vemurafenib (NSC761431), tapotoclax (NSC804041), sotorasib (NSC818433), adagrasib (NSC831453), MRTX-1133 (NSC836407), BAY2416964 (NSC825713), copanlisib (NSC816437), inavolisib (NSC800729), abemaciclib (NSC768073), osimertinib (NSC779217), entinostat (NSC756642), eltanexor (KPT-8602, NSC794443), venetoclax (NSC766270), ceralasertib (NSC777638), bortezomib (NSC756655), olaparib (NSC753686), talazoparib (NSC767125), alisertib (NSC759677), peposertib (NSC802822), gemcitabine (NSC613327), 5-fluorouracil (NSC19893), SN-38 (NSC673596), oxaliplatin (NSC266046), paclitaxel (NSC125973), and doxorubicin (NSC123127), were obtained from the National Cancer Institute (NCI) Developmental Therapeutics Program Chemical Repository. The FDA-approved anticancer drug set is available from the Developmental Therapeutics Program at https://dtp.cancer.gov/organization/dscb/obtaining/available plates.htm. […] The stock solutions were prepared in dimethyl sulfoxide (DMSO, Sigma-Aldrich, St. Louis, MO, cat. D2650), except for the platinum complexes which were prepared in saline (Quality Biological, Gaithersburg, MD, cat. 114-055-101), at 800-fold the tested concentration and stored at -70 degrees C prior to their use. All drugs and investigational agents were tested over a range starting from a high concentration at or near the clinical Cmax and decreasing in half-log increments. If the clinical Cmax for an agent had not been determined, the highest concentration tested was 10 microM.
Cell Culture. […]

The viability, T/C is the ratio of treated to control. Usually IC50 stands for the concentration that gives 50% inhibition.
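Note: spheroids exposed to agents for seven days before readout.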
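Throughout, for viability, T/C: percent of DMSO vehicle control wells so 100% = untreated growth.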

As for `C=C(F)C(=O)N1CCN(c2nc(OCC3CCCN3C)nc3c2CCN(c2cccc4cccc(Cl)c24)C3)CC1CC#N` (stereo not drawn), the viability, T/C (compound alone 10 µM) was 40.6% and 9.86%. As to `CNC(=O)c1ccc(Nc2nc(OC3CCCC3)c3c(-c4ccc5nc(C)oc5c4)c[nH]c3n2)c(OC)c1`, the viability, T/C (compound alone 0.0316 µM) is 115, 102, 96.2, 126, 96.3 (2×), 103, 113, 87.4, 101, 111, 104%. Also, the concentration for half-maximal inhibition (IC50) (drug combinations, compound alone, run of 08/15/2023) is on record as 812 nM, 828 nM, 1.47 µM, 987 nM, 2.27 µM, 1.24 µM, 2.13 µM, 1.59 µM, 613 nM, 2.88 µM, 959 nM, 893 nM.
